These results are taken from PMC6919601, “Identification of Plasmodium dipeptidyl aminopeptidase allosteric inhibitors by high throughput screening” (PLoS ONE, 2019).

Several values for one entry are separate records, joined by “and”; a condition that tells them apart may be missing. Equal values may be shown once. The campaign covered roughly 110,000 compounds. About 230 (0.21%) showed an effect of 50% or more. This is one part of the list.
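Also: 30 min substrate incubation versus DMSO and 10 µM JCP410 controls.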

The assay deals with DPAP1 (Plasmodium falciparum, UniProt Q8IIJ9). In words: primary screen, percent inhibition; read by cleavage of a fluorogenic dipeptide substrate; higher = more effect of the substance. Also on record: species or system P. falciparum D10 trophozoite lysates; single well.
Sequence of DPAP1 (Q8IIJ9 whole entry, looked up): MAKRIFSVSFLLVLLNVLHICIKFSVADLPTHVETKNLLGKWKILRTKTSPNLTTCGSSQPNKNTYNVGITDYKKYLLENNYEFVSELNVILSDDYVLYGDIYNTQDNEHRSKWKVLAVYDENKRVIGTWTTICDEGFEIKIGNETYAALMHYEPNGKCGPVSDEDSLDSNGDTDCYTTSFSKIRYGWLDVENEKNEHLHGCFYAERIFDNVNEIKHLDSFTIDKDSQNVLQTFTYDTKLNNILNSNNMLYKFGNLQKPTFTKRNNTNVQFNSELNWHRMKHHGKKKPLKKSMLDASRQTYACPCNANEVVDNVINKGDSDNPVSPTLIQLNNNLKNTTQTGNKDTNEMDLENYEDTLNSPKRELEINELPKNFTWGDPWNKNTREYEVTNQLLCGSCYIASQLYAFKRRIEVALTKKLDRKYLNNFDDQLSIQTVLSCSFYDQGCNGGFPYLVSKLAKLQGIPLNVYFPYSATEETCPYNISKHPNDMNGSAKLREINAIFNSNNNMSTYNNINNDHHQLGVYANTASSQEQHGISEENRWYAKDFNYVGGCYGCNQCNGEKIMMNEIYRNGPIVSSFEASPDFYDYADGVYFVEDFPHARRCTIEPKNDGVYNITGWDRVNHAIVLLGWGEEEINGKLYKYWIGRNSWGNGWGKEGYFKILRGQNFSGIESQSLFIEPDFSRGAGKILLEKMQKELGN
As to `CCCc1ccc(C#N)c(SCC(=O)Nc2ccc(OC)cc2)n1`, the “% Inhibition @ 10 uM” value came to 1.82%.
Under `O=C1/C(=C/c2cc([N+](=O)[O-])cc(Br)c2O)Sc2ccccc21` stands -2.42%.
With `CC(OC(=O)c1ccc([N+](=O)[O-])cc1)C(N)=O` (stereo not shown), the “% Inhibition @ 10 uM” value is listed as 0.98%.
`N#CC1(NC(=O)[C@H](Cc2cc(I)c(O)c(I)c2)NC(=O)c2ccc(N3CCOCC3)cc2)CC1`: the “% Inhibition @ 10 uM” value is given as -1.41%.
Under `CCC1(C)Oc2ccccc2C2CC(c3ccccc3)=NN21` (stereo not shown) stands -2.87%; under `O=C(Nc1cccc(O)c1)/C(=C/c1ccccc1Cl)NC(=O)c1ccccc1`, -5.79%; under `CCC(C)NC(=O)C(C)Oc1cccc(Cl)c1` (stereo not shown), -0.884%.
The result for `Cc1cc2sc(NC(=O)c3cccs3)nc2cc1Cl` reads 0.83%.
Under `COCc1cc(C)nc2sc(C(=O)OC)c(-n3cccc3)c12` stands 2.7%; under `CCOc1cc(CNS(=O)(=O)c2ccc3[nH]c4c(c3c2)CCCC4)cc(OCC)c1OCC`, -1.41%; under `c1ccc(N2CCN(Cc3ccsc3)CC2)nc1`, -3.71%.
Consider `CCOC(=O)c1c(NC(=O)CSc2nc(C)c(Cc3ccc(O)cc3)[nH]2)sc2c1CCCC2`, for which the “% Inhibition @ 10 uM” value is 3.47%.
The result for `O=C(NCc1ccc(F)cc1)C1CCCN(c2ncnc3c2nc2n3CCCCC2)C1` (stereo not shown) reads 1.9%; that for `O=C1NC(c2ccc3c(c2)OCO3)Nc2sc3c(c21)CCCC3` (stereo not shown), 2.7%.
Under `CC1CCN(c2nc3nonc3nc2N2CCC(C)CC2)CC1` stands -1.11%.
Under `O=C1CC(c2ccccc2OCc2ccccc2)C2=C(CCCC2=O)N1` (stereo not shown) stands 12.4%; under `CC(=O)NCc1cn2c(C)csc2n1`, 0.953%; under `CN(C)/C=C1\C(=O)c2ccc(N(C)C)nc2CC1c1ccccc1` (stereo not shown), 0.774%.
As to `CC1(C)CC(n2nc(O)c3c2NC(=O)CSC3c2ccc(F)cc2)CCO1` (stereo not shown), the “% Inhibition @ 10 uM” value is on record as -5.91%.
The result for `COc1cc(C2=N/C(=C\C(C)=C\c3ccccc3)C(=O)O2)cc(OC)c1OC` reads -7.76%; that for `COc1cc2c(cc1OC)CN(Cc1ccccc1Br)CC2`, -3.65%; that for `CC(C)Oc1ccc(C(=O)Nc2cccc(Cl)c2)cc1`, -7.28%.
On to `COc1ccc(Br)cc1CN1CCc2ccccc2C1`, for which the “% Inhibition @ 10 uM” value was 3.1%.
Under `CCOC(=O)c1c(C=O)c(C)n(C)c1C` stands -3.78%.
The result for `Cc1cccc2nc(-c3cccc(NC(=O)Cc4ccccc4)c3)cn12` reads -2.46%; that for `CC1(C)CC(OC(=O)c2ccco2)CC(C)(C)N1OC(=O)CCCN1C(=O)c2ccccc2C1=O`, 2.18%.
As for `Cn1c2ccccc2c2c(C(=O)N3CCOCC3)cn(C3CCCCC3)c(=O)c21`, the “% Inhibition @ 10 uM” value was 4.87%.
Under `CC(C)CN1C(=O)[C@@H](NC(=O)OCc2ccccc2)CS1(=O)=O` stands -1.83%; under `CCCc1cc(O)n2nc(C)c(-c3ccc(Cl)cc3)c2n1`, 3.41%.
The result for `O=C(NCc1cccnc1)c1ccc(Br)o1` reads 2.6%.
With `CCc1ccc(NC(=O)C2CC(=O)N(c3ccc(C)cc3)C2)cc1` (stereo not shown), the “% Inhibition @ 10 uM” value amounted to 0.206%.
The result for `Cc1[nH]c2ccc(C(=O)NCCN3CCN(C)CC3)cc2c1C` reads 5.54%; that for `O=C(Cn1ncc2c(=O)oc3ccccc3c21)Nc1cnc2ccccc2c1`, 4.01%; that for `N#Cc1cccc2c3c([nH]c12)CCCC3`, -0.693%.
Under `Cc1cccc(Oc2nc3ccccn3c(=O)c2/C=C(\C#N)C(=O)NCc2ccco2)c1C` stands -1.43%; under `Cc1ccc(-c2cc3nc(C)c(-c4ccccc4)c(N)n3n2)cc1`, 3.16%; under `C=CCNC(=O)C1C2C=CC3(CN(Cc4ccccc4Cl)C(=O)C13)O2` (stereo not shown), -2.26%.
Under `Cc1ccc2cc(NC(=O)CN3c4cccc5cccc(c45)S3(=O)=O)ccc2n1` stands 7.87%; under `Cc1ccc(C(=O)N2c3ccccc3C=CC2C#N)cc1` (stereo not shown), 0.408%.
As to `COc1ccc(NC2=C(Cl)C(=O)N(c3ccccc3)C2=O)cc1`, the “% Inhibition @ 10 uM” value turned out to be 2.38%.
Turning to `Cc1ccc2oc(C(=O)N(Cc3ccc(C)o3)C3CCS(=O)(=O)C3)c(C)c2c1` (stereo not shown), the “% Inhibition @ 10 uM” value came out at 0.569%.
Under `CCOc1ccccc1/C=C1/S/C(=N\c2ccccc2)N(C)C1=O` stands 2.05%.
Under `Cc1cccc(C(=O)Nc2cc(C)c(C)cc2O)c1` stands -5%; under `Cc1ccc(O)c(C(=O)CC(=O)c2ccccc2C)c1`, 2.79%.
For `CC(=O)c1c(O)c(C)c(-c2ccccc2)n(-c2ccccc2)c1=O`, the “% Inhibition @ 10 uM” value came to 1.43%.
`CCOC(=O)N1CCN(c2c(N3CCC(C)CC3)c(=O)c2=O)CC1`: the “% Inhibition @ 10 uM” value turned out to be 1.93%.
The result for `O=C(NCc1ccc2c(c1)OCO2)c1cccc(Cl)c1` reads -5.49%.
The result for `COc1ccc(C(NC(C)=O)c2nccc3cc(OC)c(OC)cc23)cc1OC` (stereo not shown) reads -2.19%.
Turning to `C1=C(c2ccccc2)CCN(c2ncnc3c2nc2n3CCCCC2)C1`, the “% Inhibition @ 10 uM” value is recorded as -1.87%.
The result for `COc1ccc(N2CCN(CC(O)COC(C)C)CC2)cc1` (stereo not shown) reads 0.408% and 6.78%.
Under `CCOC(=O)N1CCN(c2cnn(-c3nc4ccccc4s3)c(=O)c2Cl)CC1` stands 13.2%.
The result for `CN(C)c1ccc(CN2CCN(c3cccc(C(F)(F)F)c3)CC2)cc1` reads -1.86%.
